In the supplement of paper PMC3724861:
This is one part of the list.

system: T1, Caupolican (Caup) homeodomain DNA-binding domain; experiment: PBM E-score (8-mer, recovered from the published 9-mer minima) (E-score (dimensionless, -0.5 to 0.5)); Drosophila protein; higher = stronger relative binding preference, active = 0.31 or more
T1 sequence: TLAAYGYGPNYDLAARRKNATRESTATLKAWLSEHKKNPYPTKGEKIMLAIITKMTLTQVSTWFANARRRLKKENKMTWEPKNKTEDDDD
Summary of the method: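 An enrichment score, with higher meaning stronger, expresses relative binding preference for each short DNA word. The protein used was Caup's homeodomain DNA-binding domain (residues 214-303), produced by in vitro transcription and translation and tested at 100 nM on custom-designed protein binding microarrays. The 8-mer values were recovered from published 9-mer scores, each equal to the lower of its two constituent 8-mer scores.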

Sequence	PBM E-score
AACAGCTA	inactive: 0.189
CCGCCCTA	inactive: -0.205
AATACGAA	inactive: 0.158
GTAGAAGA	inactive: -0.0473
CATTTAGC	inactive: 0.0719
AGCGTGCG	inactive: -0.16
CCATATAA	inactive: 0.0843
GGAAGAAA	inactive: -0.0587
AAGAAGGG	inactive: -0.15
TAGGGACA	inactive: 0.11
GCCAGGAC	inactive: -0.128
ATGCAAGG	inactive: -0.0685
AGTTTGGA	inactive: 0.04
AAAATATA	inactive: 0.158
AAACCTAG	inactive: -0.0413
GCAGCCCA	inactive: -0.15
ATATAACC	inactive: 0.0533
GCCGCACA	inactive: -0.0469
CCCTTTGA	inactive: -0.0651
GATTTGCC	inactive: -0.0122
CTATAAAG	inactive: 0.00838

Sequence	PBM E-score
AGCTACCA	inactive: 0.0492
AAGTTCAA	inactive: 0.0707
AATCTCCC	inactive: -0.0793
GAGCCAAA	inactive: -0.101
TCAACTCA	inactive: 0.0084
AATCAGGT	inactive: 0.136
AAACAGGT	inactive: 0.171
CAATTAAG	inactive: 0.0577
AGCTGTTC	inactive: 0.0293
CTGTGGCC	inactive: -0.17
CACCCATC	inactive: -0.0606
AAAGCAAA	inactive: 0.0731
GACCGTGA	inactive: -0.039
CGCAACCA	inactive: -0.0345
CAACGCTA	inactive: -0.0166
CTTTGGGC	inactive: -0.164
AATGCGCT	inactive: -0.00804
ACGAATGG	inactive: -0.00234
CCAGAGAC	inactive: -0.109
AGTTGACC	inactive: -0.0917
GATTTCTA	inactive: -0.101

Sequence	PBM E-score
CGACGGTA	inactive: -0.06
CATTGCAG	inactive: 0.0838
GTCAAGGA	inactive: 0.0869
CGAGAGGA	≥ -0.058
ATAGCTAG	inactive: 0.0155
GCTAACCC	inactive: -0.135
CCCAGCAA	inactive: -0.09
ACAGGAAG	inactive: 0.0672
GAAGAACA	inactive: 0.3
AAACCTAA	inactive: -0.0381
TAGGTGCA	inactive: -0.00357
ACACAGCT	inactive: 0.109
CCAACAAA	inactive: 0.166
TCATCACA	inactive: 0.14
GAAGATTA	inactive: 0.0403
AACGAATT	inactive: 0.117
CAACTTGA	inactive: 0.0844
ATGGGGGA	inactive: -0.179
ACTGAGCA	inactive: 0.0738
